15 sequences from the supplement of paper PMC7826260 can be followed below.

The list shows a part of the results. Each Rep nickase domain was tested in vitro on the same pool of single strands for 1 h at 37 °C with 3 µM enzyme; only the middle of the 90-letter strands is printed. Uncut reads are compared with the no-enzyme pool on a log2 scale; the lower, the more was cut; hits are not called. Shares of all reads are compared; where an enzyme cuts many sequences, the uncut ones exceed 0.

Holding throughout (assay): uncleaved DNA left, log2 of reads against the no-enzyme library (log2 ratio); higher = less cleavage (more negative = more Rep cleavage of the k-mer); sequences stand for … in CTCGTCCG…ACCGGAGA
Experiment [1] relates to T1, Rep nickase domain of Muscovy duck circovirus.
T1 sequence (protein, residues 1-111, tag omitted): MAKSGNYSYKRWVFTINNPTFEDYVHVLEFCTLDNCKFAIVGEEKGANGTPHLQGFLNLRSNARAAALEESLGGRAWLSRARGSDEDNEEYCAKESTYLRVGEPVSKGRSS
On the procedure:
(§1)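 A pool of 90-nt single-stranded DNAs with seven random bases just before the constant AC of the nick site (name = the seven bases) was cut by 3 µM recombinant His6-SUMO-tagged Rep nickase domain (300 nM DNA, 50 mM HEPES pH 8.0, 50 mM NaCl, 1 mM MnCl2, 1 h, 37 °C, three replicates). Uncut DNA was amplified and sequenced.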

In experiment [2] the test system is T2, Rep nickase domain of banana bunchy top virus.
T2 sequence (protein, residues 1-94, tag omitted): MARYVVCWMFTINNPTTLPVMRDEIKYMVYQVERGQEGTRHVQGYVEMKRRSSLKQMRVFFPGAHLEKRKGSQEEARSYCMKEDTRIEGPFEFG
On the procedure:
as §1

The subject of experiment [3] is T3, Rep nickase domain of cabbage leaf curl virus.
T3 sequence (protein, residues 1-116, tag omitted): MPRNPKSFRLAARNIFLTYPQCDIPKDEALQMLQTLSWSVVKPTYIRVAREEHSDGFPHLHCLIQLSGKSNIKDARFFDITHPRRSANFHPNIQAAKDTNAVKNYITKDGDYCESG
As to the method: as §1
Experiment [4] concerns T4, Rep nickase domain of chickpea chlorotic dwarf virus.
T4 sequence (protein, residues 1-124, tag omitted): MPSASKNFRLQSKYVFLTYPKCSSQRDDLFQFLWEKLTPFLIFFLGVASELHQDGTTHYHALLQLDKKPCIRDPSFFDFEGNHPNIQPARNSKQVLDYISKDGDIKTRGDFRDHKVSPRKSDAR
On the procedure: as §1
Experiment [5] deals with T5, Rep nickase domain of faba bean necrotic yellows virus.
T5 sequence (protein, residues 1-98, tag omitted): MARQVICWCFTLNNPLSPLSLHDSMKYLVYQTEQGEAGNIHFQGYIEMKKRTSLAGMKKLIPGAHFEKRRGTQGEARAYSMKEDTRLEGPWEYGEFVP
As to the method:
as §1

Experiment [6] relates to T6, Rep nickase domain of maize striate mosaic virus.
T6 sequence (protein, residues 1-117, tag omitted): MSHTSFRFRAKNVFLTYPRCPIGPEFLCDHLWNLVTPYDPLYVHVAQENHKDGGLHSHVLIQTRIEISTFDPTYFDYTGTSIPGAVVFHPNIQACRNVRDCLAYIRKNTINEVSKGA
On the procedure: as §1
For experiment [7], the system named is T7, Rep nickase domain of porcine circovirus 2.
T7 sequence (protein, residues 2-116, tag omitted): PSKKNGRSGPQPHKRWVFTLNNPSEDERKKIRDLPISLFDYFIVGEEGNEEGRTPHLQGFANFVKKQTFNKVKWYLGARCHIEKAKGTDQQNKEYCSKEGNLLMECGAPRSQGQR
On the procedure: as §1
Experiment [8] relates to T8, Rep nickase domain of tomato golden mosaic virus.
T8 sequence (protein, residues 1-124, tag omitted): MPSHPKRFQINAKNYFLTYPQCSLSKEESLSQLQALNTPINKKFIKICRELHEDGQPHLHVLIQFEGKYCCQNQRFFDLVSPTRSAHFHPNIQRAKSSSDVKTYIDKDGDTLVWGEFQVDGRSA
As to the method:
as §1

In experiment [9] the test system is T9, Rep nickase domain of tomato yellow leaf curl virus.
T9 sequence (protein, residues 1-136, tag omitted): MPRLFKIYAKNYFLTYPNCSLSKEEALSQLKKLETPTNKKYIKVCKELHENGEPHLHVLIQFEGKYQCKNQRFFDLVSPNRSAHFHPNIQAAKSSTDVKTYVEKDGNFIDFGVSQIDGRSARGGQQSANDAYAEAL
As to the method: as §1
Experiment [10] relates to T10, Rep nickase domain of wheat dwarf virus.
T10 sequence (protein, residues 1-137, tag omitted): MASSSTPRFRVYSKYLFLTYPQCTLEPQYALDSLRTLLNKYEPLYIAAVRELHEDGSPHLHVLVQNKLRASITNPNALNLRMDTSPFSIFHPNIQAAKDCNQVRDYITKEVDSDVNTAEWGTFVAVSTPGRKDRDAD
As to the method: as §1

GTGTTTC: the “uncleaved DNA left (log2)” value in experiment [1] was found to be 0.00653; in experiment [2] it was 0.109; in experiment [3], 0.26; in experiment [4], 0.813; in [5], 0.0495; in experiment [6], 1.78. Further, the “uncleaved DNA left (log2)” value in experiment [7] is 0.0266; in [8] it was 0.105; in [9] it was 0.0853; in [10] it was 0.097.

Consider CTTGGAT, for which the “uncleaved DNA left (log2)” value in [1] is 0.148; in [2], 0.123; in [3], 0.285; in [4] it was 1.64; in experiment [5], 0.0435; in experiment [6], 1.87. Further, the “uncleaved DNA left (log2)” value in [7] was 0.119; in [8], 0.0927; in [9] it was -0.0678; in experiment [10], 0.123.

With TGATGGA, the “uncleaved DNA left (log2)” value was -0.101 in experiment [1]; -0.0194 in experiment [2]; 0.0281 in experiment [3]; -0.195 in [4]; -0.0387 in experiment [5]; -0.427 in [6]. For the same sequence, the “uncleaved DNA left (log2)” value was -0.0672 in experiment [7], 0.0147 in [8], -0.117 in [9] and -0.0744 in experiment [10].

As to TCTTGGT, the “uncleaved DNA left (log2)” value is -0.427 in [1]; -0.31 in [2]; -0.106 in experiment [3]; -0.317 in experiment [4]; -0.221 in experiment [5]; -0.474 in experiment [6]. The “uncleaved DNA left (log2)” value in [7] was -1.69; in experiment [8], -0.232; in [9], -0.169; in experiment [10] it was -0.238.

Consider AGCTCCC, for which the “uncleaved DNA left (log2)” value in experiment [1] was 0.0477; in experiment [2], 0.0135; in experiment [3], 0.241; in [4] it was 0.394; in experiment [5] it was 0.00818; in experiment [6] it was 0.519. The “uncleaved DNA left (log2)” value in [7] was -0.0179; in experiment [8], 0.0142; in experiment [9], -0.0186; in [10] it was 0.113.

As for AATGGAT, the “uncleaved DNA left (log2)” value in [1] is -0.0147; in experiment [2] it was 0.0631; in experiment [3] it was 0.254; in experiment [4] it was 1.6; in experiment [5] it was -0.0528; in [6], 1.75. In addition, the “uncleaved DNA left (log2)” value in experiment [7] was 0.0121; in [8], 0.072; in experiment [9], -0.171; in [10] it was 0.0297.

With GAGGTAG, the “uncleaved DNA left (log2)” value in [1] was 0.146; in [2] it was 0.176; in experiment [3] it was -0.0502; in [4], -0.0484; in experiment [5], 0.127; in experiment [6] it was -0.481. The “uncleaved DNA left (log2)” value in experiment [7] is 0.244; in experiment [8], 0.185; in experiment [9], 0.219; in experiment [10] it was 0.0224.

Turning to GAGAGGT, the “uncleaved DNA left (log2)” value in experiment [1] came to 0.169; in [2], 0.104; in [3], 0.388; in experiment [4], 1.09; in experiment [5], 0.0215; in experiment [6], 1.43. For the same sequence, the “uncleaved DNA left (log2)” value in [7] is -1.39; in experiment [8], 0.14; in experiment [9], 0.00696; in [10], 0.127.

For the sequence CAGAGGC, the “uncleaved DNA left (log2)” value was -0.0469 in experiment [1]; -0.057 in experiment [2]; -0.144 in experiment [3]; -0.254 in [4]; -0.0207 in [5]; -0.976 in [6]. Also, the “uncleaved DNA left (log2)” value is 0.0156 in [7], 0.104 in experiment [8], -0.14 in experiment [9] and -0.134 in [10].

Consider CTACTGT, for which the “uncleaved DNA left (log2)” value is 0.115 in experiment [1]; 0.0622 in experiment [2]; 0.0416 in experiment [3]; -0.0843 in experiment [4]; -0.0324 in [5]; 0.848 in [6]. For the same sequence, the “uncleaved DNA left (log2)” value in experiment [7] is -0.0331; in experiment [8] it was -0.171; in experiment [9], 0.00412; in [10] it was 0.106.

Take TATTTCC: the “uncleaved DNA left (log2)” value in [1] is -2.57; in experiment [2], -0.313; in [3], 0.0783; in experiment [4], -0.778; in experiment [5], 0.00709; in experiment [6], -0.386. Also, the “uncleaved DNA left (log2)” value in experiment [7] is -0.489; in experiment [8], -0.051; in experiment [9], 0.0809; in [10], -0.0256.

For the sequence TTATCTA, the “uncleaved DNA left (log2)” value is 0.0561 in experiment [1]; 0.194 in experiment [2]; 0.373 in experiment [3]; 0.0335 in [4]; 0.0899 in [5]; 0.653 in experiment [6]. The “uncleaved DNA left (log2)” value in experiment [7] was -0.0217; in experiment [8] it was 0.0196; in [9] it was 0.258; in experiment [10], 0.252.

As for CATAGCA, the “uncleaved DNA left (log2)” value in experiment [1] was 0.154; in experiment [2] it was 0.101; in [3], -0.449; in [4] it was -0.897; in experiment [5] it was 0.0471; in experiment [6], -1.14. Also, the “uncleaved DNA left (log2)” value turned out to be 0.123 in experiment [7], 0.0233 in experiment [8], 0.209 in experiment [9] and 0.0692 in [10].

With TTTGATT, the “uncleaved DNA left (log2)” value in [1] is -0.416; in experiment [2], -0.117; in [3] it was -0.17; in experiment [4], -2.27; in experiment [5], -0.057; in [6], -0.59. Also, the “uncleaved DNA left (log2)” value was -2.03 in experiment [7], -0.0711 in experiment [8], -0.0027 in experiment [9] and -0.18 in [10].

Regarding TTCTTTT, the “uncleaved DNA left (log2)” value in experiment [1] is -3.22; in experiment [2] it was -0.268; in experiment [3], -0.611; in [4] it was -2.5; in experiment [5], -0.107; in [6], -0.4. The “uncleaved DNA left (log2)” value is -3.1 in [7], -0.106 in experiment [8], -0.0332 in [9] and -0.115 in experiment [10].
